From the supplement of paper PMC6135742
Where a name gives a salt, the structure may show the parent alone. ± gives the standard deviation of the averaged measurements. In all, about 2,600 compounds were measured (“total cell number (DAPI+ nuclei) relative to DMSO vehicle control”: median about -1.4, lowest 2% from about -23 on). This is one part of the list.

The compounds below were run on jimpy (Plp1 jimpy) mouse iPSC-derived oligodendrocyte progenitor cells (assay: total cell number (DAPI+ nuclei) relative to DMSO vehicle control (SDs above negative control mean); higher = more surviving cells). Conditions: 10 µM; 3 days.

Compound	total cell number
O=C(O)[C@H](CC(=O)N1C[C@H]2CCCC[C@H]2C1)Cc1ccccc1 [Mitiglinide calcium]	-0.654
c1coc(CNc2ncnc3[nH]cnc23)c1 [Kinetin]	0.658
S=c1[nH]c(-c2ccccc2)cn1-c1ccccc1	-0.664
C[C@@H]1C[C@H]2[C@@H]3CCC4=CC(=O)C=C[C@]4(C)[C@@]3(Cl)[C@@H](O)C[C@]2(C)[C@@]1(OC(=O)c1ccco1)C(=O)CCl [Mometasone furoate]	-0.0447
CCOC(=O)[C@H](CCc1ccccc1)N[C@@H](C)C(=O)N1C(=O)N(C)C[C@H]1C(=O)O [Imidapril HCl]	0.247
CCOC(=O)c1cnc2c(cnn2CC)c1NN=C(C)C [Etazolate hydrochloride]	-1.19
Cc1ccc(NC(=O)C2(c3ccc4c(c3)OC(F)(F)O4)CC2)nc1-c1cccc(C(=O)O)c1 [VX-809 (Lumacaftor)]	1.21
Cn1cc(/C=C2\C(=O)Nc3cccnc32)c2ccccc21	-4.69
CC(C)OC(=O)C(C)(C)Oc1ccc(C(=O)c2ccc(Cl)cc2)cc1 [Fenofibrate]	-1.69 ± 1.2
CCN(CC)CCOc1ccc(Nc2ncc3cc(-c4c(Cl)cccc4Cl)c(=O)n(C)c3n2)cc1	-10.7
NC(=O)CC[C@H](N)C(=O)O [L-Glutamine]	-1.71
CCn1c(-c2nonc2N)nc2c(C#CC(C)(C)O)ncc(OC[C@H]3CCCNC3)c21	-5.14
O=S(=O)(O)Oc1ccc(C(c2ccc(OS(=O)(=O)O)cc2)c2ccccn2)cc1 [Sodium Picosulfate]	0.486
CN1C(=O)C(Cc2c[nH]c3ccccc23)NC1=S (configuration not stated) [Necrostatin-1]	0.123 ± 0.72
Cc1cc2c(s1)Nc1ccccc1N=C2N1CCN(C)CC1 [Olanzapine]	-2.67 ± 0.65
NC(=O)c1ccc(-c2nc(-c3ccccn3)c(-c3ccc4c(c3)OCO4)[nH]2)cc1	-5.41
Cc1cn(-c2cc(NC(=O)c3ccc(C)c(Nc4nccc(-c5cccnc5)n4)c3)cc(C(F)(F)F)c2)cn1 [Nilotinib (AMN-107)]	-6.92
CCCCN(CCCC)CC(O)c1cc(Cl)cc2c1-c1ccc(Cl)cc1/C2=C/c1ccc(Cl)cc1 (configuration not stated) [Lumefantrine]	-1.83
C[C@@H](O[C@H]1OCCN(Cc2n[nH]c(=O)[nH]2)[C@H]1c1ccc(F)cc1)c1cc(C(F)(F)F)cc(C(F)(F)F)c1 [Aprepitant]	-9.88
CCCNC(=O)Nc1ccc(Oc2ncnc3cc(OC)c(OC)cc23)cc1Cl	-7.69
O=C(O)c1cc(=O)c2c(Cl)cc(Cl)cc2[nH]1 [5,7-Dichlorokynurenic acid]	-1.95

Compound	total cell number
CCN1C[C@H](C)n2c(c(O)c3c(=O)n(Cc4ccc(F)c(Cl)c4)nc(C(=O)NC)c32)C1=O	-2.03
CC(=O)c1c(C)c2cnc(Nc3ccc(N4CCNCC4)cn3)nc2n(C2CCCC2)c1=O	-20.4
O=Nc1ccc2oc(=O)ccc2c1 [6-Nitroso-1,2-benzopyrone]	-2.62
CC(C)(C)c1ccc(S(=O)(=O)/C=C/C#N)cc1	-4.62
O=c1cc(-c2ccccc2)oc2cc(O)c(O)c(O)c12 [Baicalein]	-6.52
N[C@@H](CCCC(=O)O)C(=O)O [L-2-aminoadipic acid]	0.747
O=c1[nH]c2cc(C(F)(F)F)ccc2n1-c1cc(C(F)(F)F)ccc1O	-1.85
COc1cc(C2Oc3cc([C@H]4Oc5cc(O)cc(O)c5C(=O)[C@@H]4O)ccc3OC2CO)ccc1O (some centres not stated) [Silibinin]	0.57
COc1cc(C2Oc3cc([C@H]4Oc5cc(O)cc(O)c5C(=O)[C@@H]4O)ccc3OC2CO)ccc1O (some centres not stated) [Silymarin]	-0.808
C[C@]1(c2nc3c(C(N)=O)cccc3[nH]2)CCCN1 [Veliparib (ABT-888)]	-1.63
CC(=O)N[C@@H](CS)C(=O)O [Acetylcysteine]	-0.116
CC(=O)N[C@@H](CS)C(=O)O [N-Acetyl-L-Cysteine]	-0.217
CC(=O)O[C@H]1C[C@@]2(C)[C@@H](C[C@@H](O)[C@H]3[C@@]4(C)CC[C@@H](O)[C@@H](C)[C@@H]4CC[C@@]32C)/C1=C(\CCC=C(C)C)C(=O)O [Fusidic acid sodium]	-0.624
O=c1[nH]c(=O)c2nc3ccccc3nc2[nH]1 [Alloxazine]	-1.59
O=C(O)Cc1cccc(OCCCN(Cc2cccc(C(F)(F)F)c2Cl)CC(c2ccccc2)c2ccccc2)c1	7.66
O=c1cc(-c2ccccc2)[nH]c2nc(Cl)ccc12 [7-Chloro-4-hydroxy-2-phenyl-1,8-naphthyridine]	-5.03
COc1cccc2cc(-c3nc([C@H]4CC[C@H](C(=O)O)CC4)n4ncnc(N)c34)[nH]c12	-7.04
O=C1CCC[C@@H]2[C@H]3CCC[N+]4([O-])CCC[C@@H](CN12)[C@@H]34 (some centres not stated) [Oxymatrine]	-0.222
CCN(CC)CCOC(=O)c1ccc(N)cc1 [Procaine hydrochloride]	0.73
CCN(CC)CCOC(=O)c1ccc(N)cc1 [Procaine HCl]	0.422
NC1CCN(O)C1=O (racemic)	-1.52

Compound	total cell number
CC[C@H](C)C(=O)O[C@H]1C[C@@H](C)C=C2C=C[C@H](C)[C@H](CC[C@@H]3C[C@@H](O)CC(=O)O3)[C@H]21 [Lovastatin]	-7.33
Clc1ccc(C(Cn2ccnc2)OCc2ccc(Sc3ccccc3)cc2)c(Cl)c1 (configuration not stated) [Fenticonazole Nitrate]	-0.366
Fc1ccc2[nH]c(CN3CCN(c4ccccn4)CC3)cc2c1	-2.06
C[C@H](Cn1cnc2c(N)ncnc21)OCP(=O)(O)O [Tenofovir]	-0.772
CCCCNc1cc(C(=O)O)cc(S(N)(=O)=O)c1Oc1ccccc1 [Bumetanide]	-4.15 ± 9.7
CC(C)n1c(/C=C/C(O)CC(O)CC(=O)O)c(-c2ccc(F)cc2)c2ccccc21 (configuration not stated) [Fluvastatin Sodium]	-5.69
CC(C)(C)c1ccc(C(=O)CCCN2CCC(OC(c3ccccc3)c3ccccc3)CC2)cc1 [Ebastine]	-13.8 ± 3.7
O=c1ccn([C@@H]2O[C@H](CO)[C@@H](O)[C@H]2O)c(=O)[nH]1 [Uridine]	-3.37
COCc1nc2c([nH]1)c(=O)n(C)c(=O)n2CC(C)C [8-Methoxymethyl-3-isobutyl-1-methylxanthine]	-1.77
CCCCS(=N)(=O)CCC(N)C(=O)O (racemic) [L-Buthionine-sulfoximine]	-0.554
CCCCS(=N)(=O)CCC(N)C(=O)O (racemic) [DL-Buthionine-[S,R]-sulfoximine]	-1.9
Cc1ccnc(NS(=O)(=O)c2ccc(N)cc2)n1 [Sulfamerazine]	-2.88
CCC[S+]([O-])c1ccc2[nH]c(NC(=O)OC)nc2c1 (configuration not stated) [Albendazole Oxide]	0.277
NC(=O)OCC(COC(N)=O)c1ccccc1 [Felbamate]	0.539 ± 2
COC(=O)N[C@H](C(=O)N[C@@H](Cc1ccccc1)[C@@H](O)CN(Cc1ccc(-c2ccccn2)cc1)NC(=O)[C@@H](NC(=O)OC)C(C)(C)C)C(C)(C)C [Atazanavir Sulfate]	-1.74
CNC[C@H](O)[C@@H](O)[C@H](O)[C@H](O)CO [Meglumine]	-0.831
CCCCCCCCCC[Si](C)(C)CCC(=O)NC(Cc1ccc(C)cc1)c1ccccc1 (configuration not stated) [Sandoz 58-035]	0.626
COC(=O)Nc1ccc(-c2nc(N3CCOCC3)c3cnn(C4CCN(C(=O)OC)CC4)c3n2)cc1	-18.1
NS(=O)(=O)c1cc(Cl)c(Cl)c(S(N)(=O)=O)c1 [Dichlorphenamide]	-0.368
CS(=O)(=O)c1ccc(-c2cnc(N)c(C(=O)Nc3ccccc3)n2)cc1	-8.12
COc1c(C)c2c(c(O)c1C/C=C(\C)CCC(=O)O)C(=O)OC2 [Mycophenolic acid]	-12.1

Compound	total cell number
O=C(Oc1ccccc1C(=O)O)c1ccccc1O [Sasapyrine]	-0.0603
O=C(O)C1=CO[C@@H](O[C@@H]2O[C@H](CO)[C@@H](O)[C@H](O)[C@H]2O)[C@@H]2C(CO)=CC[C@H]12 [Geniposidic acid]	-0.368
C[C@H](Cc1cc2c(c(C(N)=O)c1)N(CCCO)CC2)NCCOc1ccccc1OCC(F)(F)F [Silodosin]	-11.4
CN(C)CCOc1ccc(-c2nc(-c3ccncc3)c(-c3ccc4c(c3)CC/C4=N\O)[nH]2)cc1	-14.8
CCCC(CCC)C(=O)O[C@H]1C[C@H]2CC[C@@H](C1)[N+]2(C)C [Anisotropine methyl bromide]	12.1
O=C(NCCN1CCOCC1)c1ccc(Cl)cc1	1.72
O=C(NCCN1CCOCC1)c1ccc(Cl)cc1 [Moclobemide]	-0.958
Cc1cc(Cl)ccc1OCCCC(=O)NO [Droxinostat]	-4.36 ± 0.95
Cc1ccc(-n2sc(=O)n(Cc3ccc(F)cc3)c2=O)cc1	-4.28
O=C(c1ccc(/C=C/c2n[nH]c3ccccc23)cc1)N1CCNCC1	-13.2
C/C(=C\C(=O)Nc1ccccc1C(=O)O)c1ccc2ccccc2c1	-0.556
CC(=O)CCCCn1c(=O)c2c(ncn2C)n(C)c1=O [Pentoxifylline]	-1.04
O=C(O)C=C1CCCc2ccccc2C1O (configuration not stated)	-0.492
COc1cccc(Nc2c(C(N)=O)cnc3c(C)cc(S(=O)(=O)c4cccc(C(=O)N(C)C)c4)cc23)c1	1.06
Nc1c(CC(=O)O)cccc1C(=O)c1ccc(Br)cc1 [Bromfenac Sodium]	0.615
OCCN1CCN(CCCN2c3ccccc3C=Cc3ccccc32)CC1 [Opipramol dihydrochloride]	-1.47
CC(C)(C)c1nc(-c2cccc(NS(=O)(=O)c3c(F)cccc3F)c2F)c(-c2ccnc(N)n2)s1	0.421
C[C@H]1O[C@@H](n2cc(F)c(=O)[nH]c2=O)[C@H](O)[C@@H]1O [5-fluoro-5'-deoxyuridine]	-1.33
C[C@H]1O[C@@H](n2cc(F)c(=O)[nH]c2=O)[C@H](O)[C@@H]1O [Doxifluridine]	-1.22
